# Measured values taken from the supplement of paper PMC8728848.
# Some of the results follow.
# B1: Als3-N (Candida albicans) (protein)
# chain: KTITGVFNSFNSLTWSNAATYNYKGPGTPTWNAVLGWSLDGTSASPGDTFTLNMPCVFKFTTSQTSVDLTAHGVKYATCQFQAGEEFMTFSTLTCTVSNTLTPSIKALGTVTLPLAFNVGGTGSSVDLEDSKCFTAGTNTVTFNDGGKKISINVDFERSNVDPKGYLTDSRVIPSLNKVSTLFVAPQCANGYTSGTMGFANTYGDVQIDCSNIHVGITKGLNDWNYPVSSESFSYTKTCSSNGIFITYKNVPAGYRPFVDAYISATDVNSYTLSYANEYTCAGGYWQRAPFTLRWTGYRNSDAGSNGIVIVATTRTVTDSTTAVTTLPFDPNRDKTKTIEILKPIPTTTITTSYVGVTTSYLTKTAPIGETATVIVDIPYHTTTTVTSKWTGTITSTTTHTNPTDSIDTVIVQVP
# Tests used:
# Assay in all cases: glycan array binding signal (z-score within array); higher = stronger binding
# Details in all cases: glycan notation: IUPAC condensed, linker removed
# [1] = molecular target: Fuc(a1-2)Gal(b1-4)GlcNAc(b1-3)Gal(b1-4)GlcNAc(b1-2)Man(a1-3)[Fuc(a1-2)Gal(b1-4)GlcNAc(b1-3)Gal(b1-4)GlcNAc(b1-2)Man(a1-6)]Man(b1-4)GlcNAc(b1-4)GlcNAc
# Summary of the method: (§1)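 Glycan array binding is given as a within-array Z-score, which can be read as non-binding when negative. The arrays, 3228 of them, came from the Consortium for Functional Glycomics database and were retained only where the protein sequence was available. Z-scores were averaged across arrays of the same protein sequence at different concentrations or buffers and across linkers.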
# [2] = molecular target: Fuc(a1-2)Gal(b1-4)GlcNAc(b1-3)Gal(b1-4)GlcNAc(b1-3)Gal(b1-4)GlcNAc
# Summary of the method: as §1
# [3] = molecular target: Fuc(a1-2)Gal(b1-4)GlcNAc(b1-3)GalNAc
# Summary of the method: as §1
# [4] = molecular target: Fuc(a1-2)Gal(b1-4)GlcNAc(b1-3)[Fuc(a1-2)Gal(b1-4)GlcNAc(b1-6)]GalNAc
# Summary of the method: as §1
# [5] = molecular target: Fuc(a1-2)Gal(b1-4)GlcNAc(b1-3)[Fuc(a1-3)[Gal(b1-4)]GlcNAc(b1-6)]Gal(b1-4)Glc
# Summary of the method: as §1
# [6] = molecular target: Fuc(a1-2)Gal(b1-4)GlcNAc(b1-6)GalNAc
# Summary of the method: as §1
# [7] = molecular target: Fuc(a1-2)Gal(b1-4)GlcNAc6S
# Summary of the method: as §1
# [8] = molecular target: Fuc(a1-2)Gal(b1-4)[Fuc(a1-3)]GlcNAc
# Summary of the method: as §1
# [9] = molecular target: Fuc(a1-2)Gal(b1-4)[Fuc(a1-3)]GlcNAc(b1-2)Man(a1-3)[Fuc(a1-2)Gal(b1-4)[Fuc(a1-3)]GlcNAc(b1-2)Man(a1-6)]Man(b1-4)GlcNAc(b1-4)[Fuc(a1-6)]GlcNAc
# Summary of the method: as §1
# [10] = molecular target: Fuc(a1-2)Gal(b1-4)[Fuc(a1-3)]GlcNAc(b1-2)[Fuc(a1-2)Gal(b1-4)[Fuc(a1-3)]GlcNAc(b1-4)]Man(a1-3)[Fuc(a1-2)Gal(b1-4)[Fuc(a1-3)]GlcNAc(b1-2)Man(a1-6)]Man(b1-4)GlcNAc(b1-4)GlcNAc
# Summary of the method: as §1
# [11] = molecular target: Fuc(a1-2)Gal(b1-4)[Fuc(a1-3)]GlcNAc(b1-3)Gal(b1-4)[Fuc(a1-3)]GlcNAc
# Summary of the method: as §1
# [12] = molecular target: Fuc(a1-2)Gal(b1-4)[Fuc(a1-3)]GlcNAc(b1-3)Gal(b1-4)[Fuc(a1-3)]GlcNAc(b1-3)Gal(b1-4)[Fuc(a1-3)]GlcNAc
# Summary of the method: as §1
# [13] = molecular target: Fuc(a1-2)Gal(b1-4)[Fuc(a1-3)]GlcNAc(b1-3)GalNAc
# Summary of the method: as §1
# [14] = molecular target: Fuc(a1-2)Gal(b1-4)[Fuc(a1-3)]GlcNAc(b1-3)[Neu5Ac(a2-6)Gal(b1-4)GlcNAc(b1-6)]Gal(b1-4)Glc
# Summary of the method: as §1
# [15] = molecular target: Fuc(a1-2)Gal3S(b1-4)GlcNAc
# Summary of the method: as §1
# [16] = molecular target: Fuc(a1-2)Gal6S(b1-3)GlcNAc
# Summary of the method: as §1
# [17] = molecular target: Fuc(a1-2)Gal6S(b1-3)GlcNAc6S
# Summary of the method: as §1
# Fuc(a1-2)Gal6S(b1-4)Glc = molecular target: Fuc(a1-2)Gal6S(b1-4)Glc
# Summary of the method: as §1
# [18] = molecular target: Fuc(a1-2)Gal6S(b1-4)Glc6S
# Summary of the method: as §1
# Fuc(a1-2)[Gal(a1-3)]Gal = molecular target: Fuc(a1-2)[Gal(a1-3)]Gal
# Summary of the method: as §1
# [19] = molecular target: Fuc(a1-2)[Gal(a1-3)]Gal(b1-3)GalNAc
# Summary of the method: as §1
# [20] = molecular target: Fuc(a1-2)[Gal(a1-3)]Gal(b1-3)GalNAc(b1-3)Gal(a1-4)Gal(b1-4)Glc
# Summary of the method: as §1
# [21] = molecular target: Fuc(a1-2)[Gal(a1-3)]Gal(b1-3)GlcNAc
# Summary of the method: as §1
# [22] = molecular target: Fuc(a1-2)[Gal(a1-3)]Gal(b1-3)GlcNAc(b1-2)Man(a1-3)[Fuc(a1-2)[Gal(a1-3)]Gal(b1-3)GlcNAc(b1-2)Man(a1-6)]Man(b1-4)GlcNAc(b1-4)GlcNAc
# Summary of the method: as §1
# [23] = molecular target: Fuc(a1-2)[Gal(a1-3)]Gal(b1-3)GlcNAc(b1-2)Man(a1-3)[Fuc(a1-2)[Gal(a1-3)]Gal(b1-3)GlcNAc(b1-2)Man(a1-6)]Man(b1-4)GlcNAc(b1-4)[Fuc(a1-6)]GlcNAc
# Summary of the method: as §1
# [24] = molecular target: Fuc(a1-2)[Gal(a1-3)]Gal(b1-3)GlcNAc(b1-3)GalNAc
# Summary of the method: as §1
# [25] = molecular target: Fuc(a1-2)[Gal(a1-3)]Gal(b1-3)GlcNAc(b1-6)GalNAc
# Summary of the method: as §1
# [26] = molecular target: Fuc(a1-2)[Gal(a1-3)]Gal(b1-4)Glc
# Summary of the method: as §1
# [27] = molecular target: Fuc(a1-2)[Gal(a1-3)]Gal(b1-4)GlcNAc
# Summary of the method: as §1
# [28] = molecular target: Fuc(a1-2)[Gal(a1-3)]Gal(b1-4)GlcNAc(b1-2)Man
# Summary of the method: as §1
# [29] = molecular target: Fuc(a1-2)[Gal(a1-3)]Gal(b1-4)GlcNAc(b1-2)Man(a1-3)[Fuc(a1-2)[Gal(a1-3)]Gal(b1-4)GlcNAc(b1-2)Man(a1-6)]Man(b1-4)GlcNAc(b1-4)GlcNAc
# Summary of the method: as §1
# [30] = molecular target: Fuc(a1-2)[Gal(a1-3)]Gal(b1-4)GlcNAc(b1-2)Man(a1-3)[Fuc(a1-2)[Gal(a1-3)]Gal(b1-4)GlcNAc(b1-2)Man(a1-6)]Man(b1-4)GlcNAc(b1-4)[Fuc(a1-6)]GlcNAc
# Summary of the method: as §1
# [31] = molecular target: Fuc(a1-2)[Gal(a1-3)]Gal(b1-4)GlcNAc(b1-3)GalNAc
# Summary of the method: as §1
# [32] = molecular target: Fuc(a1-2)[Gal(a1-3)]Gal(b1-4)GlcNAc(b1-3)[Fuc(a1-2)[Gal(a1-3)]Gal(b1-4)GlcNAc(b1-6)]GalNAc
# Summary of the method: as §1
# [33] = molecular target: Fuc(a1-2)[Gal(a1-3)]Gal(b1-4)GlcNAc(b1-6)GalNAc
# Summary of the method: as §1
# [34] = molecular target: Fuc(a1-2)[Gal(a1-3)]Gal(b1-4)[Fuc(a1-3)]Glc
# Summary of the method: as §1
# [35] = molecular target: Fuc(a1-2)[Gal(a1-3)]Gal(b1-4)[Fuc(a1-3)]GlcNAc
# Summary of the method: as §1
binder,measurement,setting,value
B1,glycan array binding signal (z-score),[1],0.42
same,glycan array binding signal (z-score),[2],-0.233
same,glycan array binding signal (z-score),[3],1.65
same,glycan array binding signal (z-score),[4],-0.148
same,glycan array binding signal (z-score),[5],-0.14
same,glycan array binding signal (z-score),[6],0.041
same,glycan array binding signal (z-score),[7],-0.257
same,glycan array binding signal (z-score),[8],-0.238
same,glycan array binding signal (z-score),[9],0.604
same,glycan array binding signal (z-score),[10],1.57
same,glycan array binding signal (z-score),[11],-0.301
same,glycan array binding signal (z-score),[12],-0.266
same,glycan array binding signal (z-score),[13],1.01
same,glycan array binding signal (z-score),[14],-0.282
same,glycan array binding signal (z-score),[15],-0.251
same,glycan array binding signal (z-score),[16],-0.218
same,glycan array binding signal (z-score),[17],0.105
same,glycan array binding signal (z-score),Fuc(a1-2)Gal6S(b1-4)Glc,-0.069
same,glycan array binding signal (z-score),[18],-0.036
same,glycan array binding signal (z-score),Fuc(a1-2)[Gal(a1-3)]Gal,-0.237
same,glycan array binding signal (z-score),[19],-0.211
same,glycan array binding signal (z-score),[20],-0.13
same,glycan array binding signal (z-score),[21],-0.265
same,glycan array binding signal (z-score),[22],-0.273
same,glycan array binding signal (z-score),[23],-0.309
same,glycan array binding signal (z-score),[24],-0.163
same,glycan array binding signal (z-score),[25],-0.279
same,glycan array binding signal (z-score),[26],-0.316
same,glycan array binding signal (z-score),[27],-0.009
same,glycan array binding signal (z-score),[28],-0.192
same,glycan array binding signal (z-score),[29],0.048
same,glycan array binding signal (z-score),[30],-0.357
same,glycan array binding signal (z-score),[31],-0.261
same,glycan array binding signal (z-score),[32],-0.13
same,glycan array binding signal (z-score),[33],-0.082
same,glycan array binding signal (z-score),[34],-0.292
same,glycan array binding signal (z-score),[35],-0.1
